In all, about 320,000 compounds went through this assay and about 7,600 (2.4%) were called active. This list was built around the results that the source calls inconclusive (neither active nor inactive); the mix of calls is not that of the screen. The call rests on the fitted dose curve; in most records, active means well fitted activation curve with a large enough effect; inconclusive means small, poorly fitted or top-dose-only effect; inactive means no such curve, though single readings can be large or run the other way. Potencies of inconclusive entries are left out as doubtful fits.
Test: qHTS Assay for NPC1 Promoter Activators; further: nearly all actives have a fitted effect of over 60% in size;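 on activation: reporter is driven by a mutant NPC1 promoter; % of control where 0% means no effect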
Settings: Huh7 NPC1 promoter luciferase reporter, 24 h; series mostly up to 9.22 µM; activation: at the top concentration
Summary of the method: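 Compounds in DMSO were transferred onto Huh7 NPC1-luciferase reporter cells pre-incubated 2 h; after 24 h at 37 °C, Amplite reagent was dispensed and luminescence recorded 10 min later.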
With `COc1cc(/C=N/Nc2ccc(C(=O)O)cc2)ccc1O` the Potency was inconclusive [activator, full curve]. With `CN(C)CCCOc1cccc(Cl)c1` the “activation” value was inactive: -1.09%. With `Cn1c(/C=C/c2ccccc2[N+](=O)[O-])nc2ccccc2c1=O` the Potency was inconclusive [activator, partial curve]. In the case of `Cc1ccc(NC(=S)N2CCCCCC2)cc1`, the Potency was inconclusive [activator, partial curve]. In the case of `COc1ccc(O)c(-c2cc(-c3cccc(Br)c3)n[nH]2)c1`, the Potency was inconclusive [activator, single point]. For `O=C(Nc1ccccc1Cl)c1cc(=O)c2ccccc2o1`, the Potency was active: 3.55 µM. In the case of `O=C(/C=C(\O)c1ccccc1)C(=O)NNC(=O)c1ccccc1`, the Potency was inconclusive [activator, partial curve]. For `COc1ccc2nc(NC(=S)N(C)C)sc2c1`, the Potency was active: 0.708 µM. In the case of `Clc1nc(Nc2ccc(N3CCOCC3)cc2)c2ccccc2n1`, the “activation” value was inactive: -5.86%. With `N#Cc1cn(-c2ccccc2)nc1-c1ccc2c(c1)OCCO2` the Potency was inconclusive [activator, single point]. With `COc1ccc(Br)c(C(=O)Nc2nc3ccccc3[nH]2)c1` the Potency was inconclusive [activator, single point]. With `O=[N+]([O-])c1ccc(/C=N/Nc2nc3ccccc3o2)cc1` the Potency was active: 2 µM. With `C=CCNC(=O)c1ccc(-c2nc(-c3ccccc3)cs2)cc1` the Potency was inconclusive [activator, full curve]. For `Cc1c(Cc2ccccc2)c(=O)oc2cc(OCC(=O)N3CCC(C(N)=O)CC3)ccc12`, the “activation” value was inactive: -6.05%. For `COCC(=O)Nc1ccccc1C(=O)Nc1ccc(OC)cc1`, the Potency was inconclusive [activator, partial curve]. With `CCOc1ccc(C(=O)CCC(=O)NCC(=O)Nc2c(C)cccc2C)cc1` the “activation” value was inactive: 0.0183%. For `O=C(CN1CCN(c2ccc(F)cc2)CC1)NCC1CCCO1` (stereo unspecified), the “activation” value was inactive: -1.14%. For `COc1cccc(C(=O)Nc2cc(Cl)c(O)c(Cl)c2)c1`, the Potency was inconclusive [activator, partial curve]. With `CC(=O)Cn1ncc(N(C)Cc2ccccc2)c(Cl)c1=O` the Potency was inconclusive [activator, partial curve]. In the case of `Cc1ccnc(SCC(=O)N2CCc3ccccc32)n1`, the Potency was active: 3.16 µM. For `CCn1c(C(=O)NC2CCC(C)CC2)cc2sccc21` (stereo unspecified), the Potency was active: 3.55 µM. For `Cc1ccccc1C(=O)Nc1nnc(S(=O)(=O)N2CCCCCC2)s1`, the “activation” value was inactive: -6.63%. For `CC(C)c1c(C(=O)N/N=C/c2ccsc2)nnn1-c1nonc1N`, the “activation” value was inactive: -7.54%. With `CCn1c(=O)c(=O)[nH]c2c(=O)oc3ccc(S(=O)(=O)Nc4ccccc4)cc3c21` the “activation” value was inactive: 1.49%. In the case of `Clc1ccc(/C=N/Nc2ncnc3nc[nH]c23)cc1`, the Potency was inconclusive [activator, partial curve]. In the case of `CC1(C#CC[N+]2(C)CCCCC2)CCC2C(O1)c1ccccc1OC2(C)C` (stereo unspecified), the “activation” value was inactive: 5.83%. In the case of `Cc1nn(-c2cccc([N+](=O)[O-])c2)c(N)c1-c1ccccc1`, the Potency was inconclusive [activator, partial curve]. In the case of `CC1(C(=O)Nc2nc3ccccc3s2)CC1(Br)Br` (stereo unspecified), the Potency was inconclusive [activator, partial curve]. In the case of `CCCn1nnc(NC(=O)c2ccc(Br)cc2)n1`, the Potency was inconclusive [activator, single point]. With `O=C(Nc1cccc(F)c1)NC1CCCCCCC1` the Potency was active: 2.51 µM. In the case of `Cc1occc1C(=O)N/N=C/C=C/c1ccccc1`, the Potency was active: 3.55 µM. With `Cc1ccc(NC(=O)CCCc2ccccc2)c([N+](=O)[O-])c1` the Potency was inconclusive [activator, partial curve]. With `Cc1nccc(-c2sc(-c3cccs3)nc2C)n1` the “activation” value was inactive: -2.58%. For `Cc1ccc(NC(=O)Nc2ccc(F)c(Cl)c2)cc1`, the Potency was inconclusive [activator, partial curve]. For `N#Cc1ccccc1OCC(=O)Nc1ccc2c(c1)OCCO2`, the Potency was inconclusive [activator, partial curve]. For `COc1cccc(NC(=O)c2ccc(NC(=O)C(C)C)cc2)c1`, the Potency was inconclusive [activator, partial curve]. For `CC(=O)c1cccc(OCC(=O)NC2CCCCCC2)c1`, the “activation” value was inactive: 13.8%. For `C/C(=N\NC(=O)CC(C)C)c1c(C(F)(F)F)[nH]n(-c2nc3ccccc3s2)c1=O`, the Potency was inconclusive [activator, partial curve]. With `Cc1ccc(-c2nnc(Nc3ccc(C(=O)N(C)C)cc3)c3ccccc23)cc1S(=O)(=O)NC(C)(C)CO` the “activation” value was inactive: 5.39%. In the case of `CCc1cc2c(N=Nc3c(O)[nH]c4ccccc34)ncnc2s1`, the Potency was inconclusive [activator, partial curve]. For `O=C1Nc2ccccc2C1(c1ccccc1)c1ccccc1`, the “activation” value was inactive: -0.282%. For `CCOC(=O)c1ccc(Nc2ncnc3nc[nH]c23)cc1`, the Potency was inconclusive [activator, partial curve]. For `COc1cccc(C(=O)N2CCCc3ccccc32)c1`, the “activation” value was inactive: -2.56%. With `CN(C)/C=C/c1onc(-c2ccccc2Cl)c1C#N` the Potency was inconclusive [activator, single point]. For `CC(C)(C)c1ccc(-c2noc(CCC(=O)N3CCOCC3)n2)cc1`, the Potency was inconclusive [activator, single point]. In the case of `Cc1c(C(=O)Nc2cccc([N+](=O)[O-])c2)cnn1-c1ccccc1`, the Potency was active: 2.82 µM. In the case of `O=C(Nc1nnc(-c2ccc(F)cc2)s1)c1ccco1`, the Potency was active: 2.82 µM. With `Cc1cc(Cl)ccc1NC(=O)C1COc2ccccc2O1` (stereo unspecified) the Potency was inconclusive [activator, partial curve, poor fit]. For `Cc1ccc(Nc2cccccc2=O)cc1`, the Potency was inconclusive [activator, partial curve]. With `CCc1ccc(NC(=S)N2CCCCCCC2)cc1` the Potency was inconclusive [activator, partial curve]. For `Cc1cc(/C=N/NC(=O)c2cccs2)c(C)n1-c1cnccn1`, the Potency was active: 2 µM. With `Cc1ccc(-c2csc(N/N=C/c3ccco3)n2)cc1` the Potency was inconclusive [activator, partial curve]. With `CCCc1cc(C(=O)Nc2ccc(CC)cc2)no1` the Potency was active: 3.16 µM. For `CNC(=O)c1c(NC(=O)c2cccc(C)c2)sc2c1CCC2`, the Potency was inconclusive [activator, partial curve]. For `N/C(=N\OC(=O)c1cccs1)c1cccnc1`, the “activation” value was inactive: 1.42%. With `Cc1ccc(NC(=O)C(=O)NCC2CCCO2)cc1C` (stereo unspecified) the Potency was active: 2.82 µM. With `Cc1ccc(C(=O)Nc2ccccc2C(=O)NC(Cc2ccccc2)C(=O)O)cc1` (stereo unspecified) the “activation” value was inactive: 13.7%. For `CC(=O)c1cnc2cc(-c3cccc(Br)c3)nn2c1C`, the Potency was active: 2.82 µM. For `NS(=O)(=O)c1ccc(CNC(=O)/C=C/c2cccc([N+](=O)[O-])c2)cc1`, the “activation” value was inactive: 0.25%. For `c1ccc(-n2ncc3c(NCCN4CCOCC4)ncnc32)cc1`, the Potency was inconclusive [activator, single point]. In the case of `COc1ccc(C(=O)Nc2ccc(N3CCN(C)CC3)cc2)cc1OC`, the Potency was inconclusive [activator, single point]. In the case of `CCOC(=O)C1=C(O)/C(=C/c2ccc(OCC(=O)O)c(OCC)c2)SC1=Nc1ccccc1`, the “activation” value was inactive: -3.81%. With `O=C(Nc1ccc2c(c1)OCO2)c1cnc(Cl)c(Cl)c1` the Potency was inconclusive [activator, partial curve]. With `O=C(Nc1nc2ccc(Cl)cc2s1)C1CCCO1` (stereo unspecified) the Potency was active: 1 µM. In the case of `Cc1cc(C)c2c(n1)sc1c(=O)n(CC(=O)c3ccccc3)cnc12`, the Potency was inconclusive [activator, partial curve]. With `Cc1nn(Cc2c(F)c(F)c(F)c(F)c2F)c(C)c1NC(=O)c1ccc(COc2cc(Cl)ccc2Cl)cc1` the Potency was inconclusive [activator, partial curve]. For `O=C(Nc1ccccc1Cl)c1ccc(COc2ccc3c(c2)CCC3)cc1`, the Potency was inconclusive [activator, partial curve]. In the case of `Cc1nc(C)c(-c2ccn(C(=O)NC(C)C)n2)s1`, the “activation” value was inactive: -1.47%. In the case of `O=C(Nc1cc([N+](=O)[O-])ccc1O)c1ccc2c(c1)C(=O)N(Cc1ccco1)C2=O`, the Potency was active: 3.98 µM. For `COc1ccc2cc(C(=O)N3CCN(C)CC3)[nH]c2c1`, the Potency was inconclusive [activator, partial curve]. With `N#Cc1c(NC(=O)c2ccccc2)sc2c1CCC2` the Potency was inconclusive [activator, single point]. With `CC(=O)c1cc2c(=O)c3cc(C)ccc3oc2nc1C` the Potency was inconclusive [activator, single point]. For `COc1ccccc1/C=N/Nc1cc(C)nc2ccc(C)cc12`, the “activation” value was inactive: 16%. For `COc1ccc(-c2noc(C3CCCN(C(=O)Nc4ccccc4F)C3)n2)cc1` (stereo unspecified), the “activation” value was inactive: 15%. In the case of `Cc1[nH]n(-c2ccccc2)c(=O)c1N=Nc1cccc(C(=O)O)c1`, the Potency was inconclusive [activator, partial curve]. With `Cn1ccc(NC(=O)Nc2ccc(Cl)cc2)n1` the Potency was inconclusive [activator, single point]. For `O=C1NC(=O)C2(CCCCCCCCCCC2)N1`, the “activation” value was inactive: -1.85%. For `CC(OC(=O)CCN=C1NS(=O)(=O)c2ccccc21)C(=O)Nc1ccccc1F` (stereo unspecified), the “activation” value was inactive: 2.24%. For `Cc1cccc(C(=O)Nc2cc(S(=O)(=O)N3CCOCC3)ccc2N2CCCCC2)c1`, the “activation” value was inactive: -6.96%. In the case of `CN(C)S(=O)(=O)c1ccc(NC(=O)c2ccccn2)cc1`, the Potency was active: 2.51 µM. In the case of `COc1cccc(C(=O)Nc2nnc(-c3ccccc3)s2)c1OC`, the Potency was active: 2.51 µM.
Potency means the concentration at half of the fitted maximal effect; tags describe the fitted curve by direction and shape.
